In the supplement of paper PMC10126150:
Sequences with one replicate were seen in a single cluster, so their values are uncertain.

Test system: ATP
Assay: switch fluorescence ratio, 500 uM ATP over buffer (Cy3 cluster intensity, sum of 5 cycles each) (fold (ratio)); higher = stronger signal-on switching upon ATP binding; sequences stand for … in TCGTCGGCAGCGTCAGATGTGTATAAGAGACAGTTTTTTTTTTTTTTTTTTTTTTTTT…TC
Conditions: aptamer strand: ATP DNA aptamer (quencher-CACCTGGGGGAGTATTGCGGAGGAAGG + anchor), 100 nM annealed; ATP concentration: 500 uM; one replicate
In short: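 Between each of five buffer/ATP cycles, the flow-cell was stripped with NaOH and re-annealed. Each cycle imaged Cy3-labelled switching-strand clusters, annealed to 100 nM quencher-labelled ATP aptamer on a modified Illumina MiSeq flow-cell, first in selection buffer and then after 15 min with 500 uM ATP at 22 °C. The fluorescence ratio is summed target-cycle over summed buffer-cycle Cy3 intensity per cluster, averaged per switch-domain sequence, with clusters outside 100-1000 RFU excluded.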
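Further: ATP exposure 15 min at 22 °C before imaging.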

AAATATTCTT was tested, and the switch fluorescence ratio was 1.04.
TTCTATGCCG was tested, and the switch fluorescence ratio was 1.08.
GGCGTCCGTT gave a switch fluorescence ratio of 1.03.
For CTGGTACTCG, the switch fluorescence ratio was 1.03.
For GCCATCCGGG, the switch fluorescence ratio was 1.05.
For GCCATCAGGT, the switch fluorescence ratio was 1.02.
In the case of CCTACTCGC, the switch fluorescence ratio is reported as 1.74.
Sequence AGCTGTCTGC has a switch fluorescence ratio of 1.22.
TCCTTCAA was tested, and the switch fluorescence ratio was 3.82.
TCCAGAATAA gave a switch fluorescence ratio of 1.06.
TTATACGGGC gave a switch fluorescence ratio of 1.1.
With CAGCTTTATC the switch fluorescence ratio was 1.09.
Work on CCTAGTGCGT yielded a switch fluorescence ratio of 1.07.
Work on ACTCAACCCG yielded a switch fluorescence ratio of 1.17.
With GATAGTCGTA the switch fluorescence ratio was 1.09.
For CCCAGTCGTA, the switch fluorescence ratio was 1.
ATGCCCCGCG showed a switch fluorescence ratio of 1.05.
AAAAGTCCTT gave a switch fluorescence ratio of 1.07.
TAACCATTGT showed a switch fluorescence ratio of 0.971.
In the case of GACTTGCAG, the switch fluorescence ratio is reported as 1.07.
ACTATTTCTG showed a switch fluorescence ratio of 1.01.
Sequence ATCTTGGGTA has a switch fluorescence ratio of 1.03.
Sequence TCGGGTCTAA has a switch fluorescence ratio of 0.99.
Work on CCGTTTGTTC yielded a switch fluorescence ratio of 1.15.
ATCGAGTGGT gave a switch fluorescence ratio of 0.993.
Sequence CTAGAATGTA has a switch fluorescence ratio of 0.997.
For ATCGCTTTTG, the switch fluorescence ratio was 1.02.
Sequence CGCCCATGGC has a switch fluorescence ratio of 1.04.
Work on TAAAAGCGAA yielded a switch fluorescence ratio of 1.01.
In the case of ATGGGTTAAT, the switch fluorescence ratio is reported as 1.
CATGTTGCAT showed a switch fluorescence ratio of 1.02.
AGTAGAAGTA was tested, and the switch fluorescence ratio was 1.03.
Work on CGTGTATACA yielded a switch fluorescence ratio of 1.01.
With GGTGCCTTCT the switch fluorescence ratio was 0.971.
For GTCAGAACGT, the switch fluorescence ratio was 0.991.
CGTGCAGGGA was tested, and the switch fluorescence ratio was 0.979.
CGGTACATA was tested, and the switch fluorescence ratio was 1.01.
CTCATTTGGA gave a switch fluorescence ratio of 1.01.
With AAACCCAGCA the switch fluorescence ratio was 1.13.
Sequence TCCAAAACG has a switch fluorescence ratio of 1.
In the case of TGAGCCCAAT, the switch fluorescence ratio is reported as 1.02.
TCGGCCAGC gave a switch fluorescence ratio of 1.06.
For TCCGTGCACG, the switch fluorescence ratio was 0.961.
Sequence ATGCTCGGGA has a switch fluorescence ratio of 1.05.
Work on GTCCGTACGG yielded a switch fluorescence ratio of 1.04.
In the case of TGTTATCTTG, the switch fluorescence ratio is reported as 0.964.
For GGCCCAATAA, the switch fluorescence ratio was 1.15.
ATTAACGCGT gave a switch fluorescence ratio of 0.993.
TCTTAATGAA gave a switch fluorescence ratio of 0.962.
ATCGACTGAA showed a switch fluorescence ratio of 1.03.
CGAGGGTTCT was tested, and the switch fluorescence ratio was 0.968.
ACTCGAGC showed a switch fluorescence ratio of 1.04.
AGGCTGCCTC was tested, and the switch fluorescence ratio was 1.02.
Work on AATGTATAAG yielded a switch fluorescence ratio of 1.05.
Work on GTTATAACTT yielded a switch fluorescence ratio of 1.03.
Sequence TGAGAGACT has a switch fluorescence ratio of 0.984.
With CGATAGTCTG the switch fluorescence ratio was 1.01.
In the case of TATTATCCCC, the switch fluorescence ratio is reported as 1.03.
Work on TCCCCGTTTG yielded a switch fluorescence ratio of 1.13.
CGGTTAGTAA was tested, and the switch fluorescence ratio was 0.995.
In the case of TTTGACGTTA, the switch fluorescence ratio is reported as 1.
GTAGTTGTAT showed a switch fluorescence ratio of 0.939.
With CTGGAGGTTT the switch fluorescence ratio was 1.03.
Sequence GTTGCGAATG has a switch fluorescence ratio of 0.973.
For TAATGAGGTA, the switch fluorescence ratio was 0.975.
TATTGCCACG gave a switch fluorescence ratio of 1.
GAGGATTGGT showed a switch fluorescence ratio of 1.01.
Work on ACTATGACGC yielded a switch fluorescence ratio of 1.03.
AATTGCCACA showed a switch fluorescence ratio of 1.03.
CAGCTTCTTC was tested, and the switch fluorescence ratio was 1.08.
TTGACTGAG showed a switch fluorescence ratio of 1.03.
CCCACGGAGA showed a switch fluorescence ratio of 1.02.
TTAAGCGAGT gave a switch fluorescence ratio of 0.96.
Work on TGGCTGAAAG yielded a switch fluorescence ratio of 1.02.
ACTCGGCCCG showed a switch fluorescence ratio of 0.999.
For GGGCTTTGGT, the switch fluorescence ratio was 0.99.
CGCTAAAACG was tested, and the switch fluorescence ratio was 1.05.
Sequence CGAGAACGCT has a switch fluorescence ratio of 1.02.
CCGGTTCAGC gave a switch fluorescence ratio of 1.09.
In the case of GGACGGCATG, the switch fluorescence ratio is reported as 1.
For TTCGATACTG, the switch fluorescence ratio was 1.06.
Sequence GAAAGTCATA has a switch fluorescence ratio of 1.01.
Work on GAAAACTTTT yielded a switch fluorescence ratio of 1.02.
GGCGCACGAT showed a switch fluorescence ratio of 1.04.
Work on ATAGTAAATT yielded a switch fluorescence ratio of 0.993.
For GTAGGTTTGC, the switch fluorescence ratio was 0.993.
TTAGGACCTG was tested, and the switch fluorescence ratio was 1.02.
With GATTCAAATT the switch fluorescence ratio was 1.01.
In the case of TATCGGTAAG, the switch fluorescence ratio is reported as 0.962.
With ACTAAAAATC the switch fluorescence ratio was 1.04.
With GGGCAGCAAT the switch fluorescence ratio was 1.72.
GCTGTTATTG was tested, and the switch fluorescence ratio was 0.998.
With TACATCGTCA the switch fluorescence ratio was 0.981.
AGCATGGGTC showed a switch fluorescence ratio of 1.05.
Work on GGTAGTCACC yielded a switch fluorescence ratio of 0.979.
For GTGAGGCTGT, the switch fluorescence ratio was 0.949.
With GGGCTACACA the switch fluorescence ratio was 0.958.
AGTGCGGATG gave a switch fluorescence ratio of 0.967.
With TTAGGTTCGC the switch fluorescence ratio was 1.07.
TTAACAGCAT gave a switch fluorescence ratio of 1.03.
TGGGTCGCGG was tested, and the switch fluorescence ratio was 1.17.
With CTTCAATGAC the switch fluorescence ratio was 1.22.
Sequence GCACCGGGGA has a switch fluorescence ratio of 1.03.
Sequence ATTGGCGAA has a switch fluorescence ratio of 0.991.
TGTTTTGCTA was tested, and the switch fluorescence ratio was 1.03.
TTTCAATTGG gave a switch fluorescence ratio of 1.03.
In the case of TCTATACTCG, the switch fluorescence ratio is reported as 1.08.
GCGCTTAACA gave a switch fluorescence ratio of 1.03.
Work on CTGACTTATA yielded a switch fluorescence ratio of 1.04.
With GGTCTATCTG the switch fluorescence ratio was 0.953.
Sequence GGCCGCCGGA has a switch fluorescence ratio of 1.
GCTGTTGACA showed a switch fluorescence ratio of 0.956.
For CTTTTAAACT, the switch fluorescence ratio was 0.986.
CATGACAGCC was tested, and the switch fluorescence ratio was 1.05.
Work on CCGGTCTCCT yielded a switch fluorescence ratio of 1.08.
Sequence CCCGCGGTTG has a switch fluorescence ratio of 1.21.
Sequence CGAAGGGAGT has a switch fluorescence ratio of 1.02.
For AAGGTAAACC, the switch fluorescence ratio was 1.
TTCGGGAAGG gave a switch fluorescence ratio of 0.973.
In the case of ACATTGTCAT, the switch fluorescence ratio is reported as 1.01.
For CTGGGGCCGT, the switch fluorescence ratio was 1.05.
In the case of CGCATACGCG, the switch fluorescence ratio is reported as 1.07.
Work on GGTGTTAGCA yielded a switch fluorescence ratio of 0.98.
For AGGATGAGGA, the switch fluorescence ratio was 0.925.
In the case of TCTCGCCACC, the switch fluorescence ratio is reported as 1.15.
For ACAATGACGA, the switch fluorescence ratio was 1.14.
In the case of CCCTATCAG, the switch fluorescence ratio is reported as 1.02.
With TATATATGTT the switch fluorescence ratio was 1.03.
Work on ATGAAAGGGG yielded a switch fluorescence ratio of 0.99.
GTGGATGATA gave a switch fluorescence ratio of 0.948.
In the case of ACAACGGAAA, the switch fluorescence ratio is reported as 1.
CCAAACGGCC was tested, and the switch fluorescence ratio was 1.01.
For ATGGGTCTTG, the switch fluorescence ratio was 0.973.
CGGGCATCAA was tested, and the switch fluorescence ratio was 0.999.
Work on GTGTGGGGTT yielded a switch fluorescence ratio of 1.
For CTCCCTCCTA, the switch fluorescence ratio was 1.15.
In the case of TCCAATCACA, the switch fluorescence ratio is reported as 1.04.
Sequence TGTTTGAACT has a switch fluorescence ratio of 0.973.
Sequence TTCGGGACT has a switch fluorescence ratio of 1.02.
AGTCACGTGC showed a switch fluorescence ratio of 1.11.
AATCCAGTTG was tested, and the switch fluorescence ratio was 1.01.
For CGGCCGGCGC, the switch fluorescence ratio was 1.02.
With TAGAACGATC the switch fluorescence ratio was 0.966.
AAATCAATCA was tested, and the switch fluorescence ratio was 0.982.
Work on CCTGGCACGC yielded a switch fluorescence ratio of 1.64.
ATCTGGCCGT gave a switch fluorescence ratio of 0.974.
Work on TCTCGCTAAA yielded a switch fluorescence ratio of 1.11.
AAGATTGTGC was tested, and the switch fluorescence ratio was 1.
For ATGTCTGTGC, the switch fluorescence ratio was 0.972.
TGGAACGGCA showed a switch fluorescence ratio of 1.02.
In the case of CGCCTAACTC, the switch fluorescence ratio is reported as 1.58.
Sequence TCATCCCAAT has a switch fluorescence ratio of 1.93.
CTCCCCAGCA was tested, and the switch fluorescence ratio was 1.59.
TTCCTTGCTA showed a switch fluorescence ratio of 1.92.
TTCACTCGTG was tested, and the switch fluorescence ratio was 1.01.
Work on TTCTCAGT yielded a switch fluorescence ratio of 1.01.
With CCCTTGGCTT the switch fluorescence ratio was 1.03.
GAATTTTGTT was tested, and the switch fluorescence ratio was 1.03.
With CACAAGGAAC the switch fluorescence ratio was 0.983.
With CCGATGTACG the switch fluorescence ratio was 1.18.
ATGGTGAGAT was tested, and the switch fluorescence ratio was 0.997.
With GTACCCCGGA the switch fluorescence ratio was 0.979.
In the case of CAGACTTCGC, the switch fluorescence ratio is reported as 1.12.
In the case of TGTTAGTATC, the switch fluorescence ratio is reported as 0.985.
GGGCGAGGAC was tested, and the switch fluorescence ratio was 1.02.
Sequence GACACGCAAC has a switch fluorescence ratio of 2.76.
With CTGACTATCA the switch fluorescence ratio was 0.99.
For GAACTATCTC, the switch fluorescence ratio was 1.03.
For CTCTGCGATT, the switch fluorescence ratio was 4.77.
Sequence TTGGGCAGCT has a switch fluorescence ratio of 0.947.
TATTATCACG gave a switch fluorescence ratio of 0.992.
AGCCTATACA showed a switch fluorescence ratio of 1.
For TGGCGACAAC, the switch fluorescence ratio was 1.15.
CATCATTTT was tested, and the switch fluorescence ratio was 0.978.
With GTGGGTCTAC the switch fluorescence ratio was 0.983.
Work on CAGAGATCTT yielded a switch fluorescence ratio of 0.983.
ATATAAAGCA was tested, and the switch fluorescence ratio was 0.971.
For CGTAGAGAAT, the switch fluorescence ratio was 3.93.
With TCTGTAAGGA the switch fluorescence ratio was 1.02.
With AAGGTGGTGC the switch fluorescence ratio was 1.12.
Sequence TCGAGCTCTT has a switch fluorescence ratio of 0.979.
ATTCCCGACC showed a switch fluorescence ratio of 1.2.
Sequence CGTACTGGCA has a switch fluorescence ratio of 1.
Sequence TTTTGCGGCT has a switch fluorescence ratio of 1.1.
In the case of ACTGGCGTTG, the switch fluorescence ratio is reported as 1.03.
TCAGTAAGTC was tested, and the switch fluorescence ratio was 0.991.
With ACACGAAT the switch fluorescence ratio was 1.03.
With TAATATTGTC the switch fluorescence ratio was 0.942.
Sequence TGTGTCGGCC has a switch fluorescence ratio of 0.966.
With GTGCTATAAC the switch fluorescence ratio was 1.12.
GATGTTTCTG was tested, and the switch fluorescence ratio was 0.994.
In the case of GAGGGATAGA, the switch fluorescence ratio is reported as 1.01.
CGTGGGACGT gave a switch fluorescence ratio of 1.
CTTAGGTTTT gave a switch fluorescence ratio of 1.01.
Sequence ATTACGTTCG has a switch fluorescence ratio of 1.01.
For TCGACGCTAG, the switch fluorescence ratio was 1.1.
Work on TTCTAGTATA yielded a switch fluorescence ratio of 0.984.
Work on ACCCCGTGCT yielded a switch fluorescence ratio of 1.08.
For GACATTGAA, the switch fluorescence ratio was 1.05.
Sequence GATAGCGAAG has a switch fluorescence ratio of 1.03.
For GCGTTAACTT, the switch fluorescence ratio was 1.
